Laboratory results from PubChem BioAssay AID686970 (National Center for Advancing Translational Sciences (NCATS), 2013).
Out of some 360,000 compounds screened, about 6,000 (1.7%) were called active. The inconclusive results got no clear call from the source; some entries with a clear call stand among them for comparison. Calls follow the shape of the dose curve; as a rule, active = well fitted cell-killing curve with a large enough effect; inconclusive = small, poorly fitted or top-dose-only effect, or effect the other way; inactive = flat fitted curve, though single readings scatter. No potency is given beside an inconclusive call; the fits are too rough.
Potency is read from the fitted curve at half-maximal effect; tags tell the direction and shape of the fitted curve.

Assay: qHTS for induction of synthetic lethality in tumor cells producing 2HG: qHTS for the HT-1080-NT fibrosarcoma cell line; also: nearly all actives have a fitted effect of over 55% in size
Settings: HT-1080-NT fibrosarcoma viability, CellTiter-Glo ATP luminescence, 48 h; activity, negative = less viability: at 46.1 µM (top of the series)
Source text: Unbiased genomic sequencing for 22 glioma genomes found recurrent mutation of IDH1 on chromosome 2q33, a gene encoding the cytosolic isoform of IDH1 associated with the tricarboxylic acid cycle (TCA) that catalyzes the oxidative decarboxylation of isocitrate, yielding alpha-ketoglutarate and CO2 via NADP+ to NADPH conversion. Subsequent studies confirmed the recurrent IDH mutations in up to 70% of secondary gliomas and in 10% of AML cases. In addition, the somatic mutation of cancer-associated IDH1 is a point mutation resulting in various amino-acid substituents at Arginine132 (IDH1 R132), a key residue found in the enzyme's active site that when mutated, results in the loss-of-function in metabolizing isocitrate but confers a gain-of-function to produce the oncometabolite 2-hydroxyglutarate (2HG). This in effect defines IDH1 as an oncogene and provides an extraordinary opportunity to discover chemical probes against mutant IDH1 that may translate into much needed new therapies for glioma and AML patients.
This assay aims to perform a synthetic lethal screen for chemical probes specific for 2HG-producing tumor cells using matched paired cell lines (1) HT-1080-NT fibrosarcoma cell line that overproduces 2HG and (2) HT-1080-IDH1KD cell line which has IDH1 expression knocked-down. Desirable compounds are toxic to the NT fibrosarcoma cells but not to the IDH1KD cell line. The data in this AID corresponds to the results of the qHTS against the HT-1080-NT fibrosarcoma cell line.
[1] Dang L, Jin S, Su SM. IDH mutations in glioma and acute myeloid leukemia. Trends of Mol Med. 2010; 16(9): 387-97.
[2] Dang L et al. Cancer-associated IDH1 mutations produce 2-hydroxyglutarate. Nature. 2010; 465(7300):966.
NIH Molecular Libraries Probe Production Centers Network [MLPCN]
NIH Chemical Genomics Center [NCGC]
Assay Submitter (PI): Lenny Dang Ph.D., Agios Pharmaceuticals
Suspensions of trypsinized HT-1080-NT cells were dispensed into white, tissue culture-treated, solid 1536-well plates at 5uL/well (750 cells/well final concentration) in RPMI medium supplemented with 5% FBS. Plates were incubated at 37 degrees C for 2 hours, after which 23 nL of compounds or DMSO were delivered to each well using a pin tool. Plates were then incubated at 37 degrees C for an additional 48 hours. CellTiter-Glo viability reagent (Promega) was dispensed into wells (2.5uL/well) and incubated at room temperature for 10 minutes. The plates were measured on a PerkinElmer ViewLux plate reader for luminescent signal (clear filter, 1 sec exp). DMSO-treated control wells and media-only (no cells) control wells were used to normalize %Activity of identified toxic compounds; DMSO-treated wells corresponded to 0%Activity (100% viability), while media-only controls were used to normalize 100%Activity (0% viability).
Concentration-response curves were fitted to the signals arising from the resulting luminescence. The concentration-effect curves were then classified based on curve quality (r2), response magnitude and degree of measured activity, and compounds were subsequently categorized based on their curve class.
For CC(C)(C)c1cc(C=C(C#N)C#N)cc(C(C)(C)C)c1O, the Potency was active: 1.16 µM.
With CCn1nc(-c2ccccc2)nc2c(=O)n(C)c(=O)nc1-2 the Potency was active: 4.11 µM.
With CCOC(=O)C1(CCc2ccccc2)CCN(Cc2cccc3cnccc23)CC1 the Potency was inconclusive [cytotoxic, single point].
With Cc1cc(C(C#N)c2ccc(Cl)cc2)c(Cl)cc1NC(=O)c1cc(I)cc(I)c1O (stereo not given) the Potency was inconclusive [cytotoxic, single point].
With COc1ccc2c(c1OC)C(=O)O[C@@H]2[C@H]1c2cc3c(cc2CCN1C)OCO3 the Potency was inconclusive [rising, partial curve].
With NP(=O)(Oc1ccccc1)c1ccccc1 (stereo not given) the “activity, negative = less viability” value was inactive: 9.69%.
With C[C@@H]1C(=O)O[C@H]2[C@H](O)[C@]34[C@@H]5OC(=O)[C@]3(OC3OC(=O)[C@H](O)C34[C@H](C(C)(C)C)[C@@H]5O)[C@@]12O (stereo not given in full) the activity, negative = less viability was inconclusive: 15.9%.
In the case of Cc1ccc(N/N=C/c2c(O)n(-c3ccccc3)c(=O)[nH]c2=O)cc1, the Potency is reported as inconclusive [cytotoxic, full curve].
In the case of COc1ccc(-[n+]2c(-c3ccccc3)cc(-c3ccccc3)cc2-c2ccccc2)cc1, the Potency is reported as active: 8.2 µM.
In the case of CCOP(=O)(OCC)c1cc(CC)ccc1O, the activity, negative = less viability is reported as inconclusive: 30.4%.
With Cc1nc2cc(C(F)(F)F)ccc2n1C1CCN(Cc2nnnn2Cc2ccc3c(c2)OCO3)CC1 the Potency was active: 23.1 µM.
For NC(=O)C1(N2CCCCC2)CCN(Cc2ccccc2)CC1, the “activity, negative = less viability” value was inactive: -0.521%.
With CCCCCCC(C)(C)c1ccc([C@@H]2C[C@H](O)CC[C@H]2CCCO)c(O)c1 the Potency was active: 2.59 µM.
In the case of C=C(Cl)CSC(=S)N(CC)CC, the Potency is reported as inconclusive [cytotoxic, single point].
For O=C(CCl)Nc1nccs1, the activity, negative = less viability was inconclusive: -31% [cytotoxic].
With COC(=O)C1=C(c2cc3ccccc3o2)C[C@@H]2CC[C@H]1N2C(=O)N1CCCCC1 the Potency was inconclusive [cytotoxic, partial curve].
For Cc1cc(N=Nc2ccccc2C)ccc1N, the Potency was inconclusive [cytotoxic, partial curve].
In the case of Fc1cccc(-c2ccc3c(c2)CN(c2cccc(Cl)c2)Cc2cnnn2-3)c1, the Potency is reported as inconclusive [cytotoxic, single point].
In the case of CCCCN(Cc1ccccc1)C1CCN(CCc2ccccc2)CC1, the Potency is reported as inconclusive [cytotoxic, single point].
With C[C@H]1CCC[C@@H](O)CCC/C=C/c2cc(O)cc(O)c2C(=O)O1 the Potency was inconclusive [cytotoxic, single point].
For COCCOC(=O)C1=C(N)Oc2c(c(=O)oc3ccccc23)C1c1ccncc1 (stereo not given), the “activity, negative = less viability” value was inactive: 6.93%.
In the case of COc1ccc(NC(=O)CN2C3CCC2CC(O)(c2cccnc2)C3)cc1OC (stereo not given), the “activity, negative = less viability” value is reported as inactive: -1.68%.
In the case of O=C(Nc1ccccc1)c1cccn(Cc2ccccc2)c1=O, the “activity, negative = less viability” value is reported as inactive: -0.0026%.
In the case of COC(=O)c1cn(CC(=O)NC2CCCCC2)c2ccccc12, the Potency is reported as inconclusive [rising, single point].
In the case of ClCCN(CCCl)c1ccc(-n2cnc3c(Cl)ncnc32)cc1, the Potency is reported as inconclusive [cytotoxic, single point].
In the case of COC(=O)C1=C(c2ccc3ccccc3c2)C[C@@H]2CC[C@H]1N2C(=O)NCc1ccc(F)cc1, the Potency is reported as inconclusive [cytotoxic, single point].
With C=CC1CN2CCC1CC2[C@@H](OC(=O)c1ccc(OC)cc1)c1ccnc2ccccc12 (stereo not given in full) the Potency was inconclusive [cytotoxic, single point].
In the case of S=C(NCCc1ccccc1)N1Cc2cc(Br)ccc2-n2nncc2C1, the Potency is reported as inconclusive [cytotoxic, single point].
For CC1CCCCC12C(=O)NC(=O)NC2=O (stereo not given), the “activity, negative = less viability” value was inactive: -0.128%.
In the case of c1ccc2c3c([nH]c2c1)C1(CCNCC1)NCC3, the “activity, negative = less viability” value is reported as inactive: -0.826%.
For C/C(=N\Nc1ccccc1)c1c(O)[nH]c(=O)[nH]c1=O, the Potency was inconclusive [cytotoxic, full curve].
In the case of O=P(Nc1cccnc1)(Oc1ccccc1Cl)Oc1ccccc1Cl, the “activity, negative = less viability” value is reported as inactive: -7.61%.
For COc1ccc(CCn2c(O)c(C=Nc3ccc(NC(C)=O)cc3)c(=O)[nH]c2=O)cc1OC, the activity, negative = less viability was inconclusive: -5.04% [cytotoxic].
For CC(=O)C1CCC2(O)C3CCC4=CC(=O)CCC4(C)C3CCC12C (stereo not given), the “activity, negative = less viability” value was inactive: 10.5%.
With CC(C)(O)/C=C/C(=O)[C@](C)(O)C1[C@H](O)C[C@@]2(C)C3CC=C4C(C[C@H](O)[C@@H](O)C4(C)C)[C@]3(C)C(=O)C[C@]12C (stereo not given in full) the Potency was active: 1.3 µM.
